{"sequences": {"note": "Amino acid sequences for entries named in this document (tags omitted). Residues count along the entry.", "UniProt P52948, residues 1-880": "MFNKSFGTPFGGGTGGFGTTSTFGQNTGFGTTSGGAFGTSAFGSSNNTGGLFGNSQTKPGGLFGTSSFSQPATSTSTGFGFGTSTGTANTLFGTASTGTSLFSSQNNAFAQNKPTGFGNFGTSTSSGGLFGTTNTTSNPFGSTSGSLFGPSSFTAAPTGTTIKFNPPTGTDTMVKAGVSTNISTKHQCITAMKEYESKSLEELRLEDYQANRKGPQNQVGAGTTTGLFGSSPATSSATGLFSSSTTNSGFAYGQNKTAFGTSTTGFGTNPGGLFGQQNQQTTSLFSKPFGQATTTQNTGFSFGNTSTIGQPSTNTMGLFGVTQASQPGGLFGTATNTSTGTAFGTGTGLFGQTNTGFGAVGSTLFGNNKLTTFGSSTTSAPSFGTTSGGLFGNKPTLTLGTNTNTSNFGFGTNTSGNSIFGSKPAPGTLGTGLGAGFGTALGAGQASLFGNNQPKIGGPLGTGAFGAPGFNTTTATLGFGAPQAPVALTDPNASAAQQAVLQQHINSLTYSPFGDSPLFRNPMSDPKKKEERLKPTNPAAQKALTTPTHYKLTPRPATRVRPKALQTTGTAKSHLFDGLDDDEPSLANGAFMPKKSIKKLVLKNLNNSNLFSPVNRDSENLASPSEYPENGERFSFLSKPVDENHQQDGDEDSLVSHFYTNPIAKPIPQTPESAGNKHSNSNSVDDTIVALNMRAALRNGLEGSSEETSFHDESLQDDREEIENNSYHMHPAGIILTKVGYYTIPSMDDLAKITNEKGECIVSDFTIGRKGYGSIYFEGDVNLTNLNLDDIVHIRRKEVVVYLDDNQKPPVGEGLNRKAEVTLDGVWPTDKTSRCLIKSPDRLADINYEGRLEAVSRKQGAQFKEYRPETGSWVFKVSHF", "UniProt Q13547": "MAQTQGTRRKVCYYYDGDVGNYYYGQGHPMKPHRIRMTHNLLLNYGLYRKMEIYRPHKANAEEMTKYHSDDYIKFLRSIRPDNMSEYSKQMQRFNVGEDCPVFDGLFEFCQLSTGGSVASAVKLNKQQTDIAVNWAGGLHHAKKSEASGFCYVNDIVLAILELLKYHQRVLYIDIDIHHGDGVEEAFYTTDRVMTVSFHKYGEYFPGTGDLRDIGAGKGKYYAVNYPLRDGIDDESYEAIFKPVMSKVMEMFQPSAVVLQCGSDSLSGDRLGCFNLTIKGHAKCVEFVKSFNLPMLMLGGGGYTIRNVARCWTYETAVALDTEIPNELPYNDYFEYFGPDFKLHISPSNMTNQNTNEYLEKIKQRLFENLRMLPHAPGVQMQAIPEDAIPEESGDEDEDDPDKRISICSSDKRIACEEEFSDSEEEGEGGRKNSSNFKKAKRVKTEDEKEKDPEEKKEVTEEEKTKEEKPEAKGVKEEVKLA", "UniProt P12270": "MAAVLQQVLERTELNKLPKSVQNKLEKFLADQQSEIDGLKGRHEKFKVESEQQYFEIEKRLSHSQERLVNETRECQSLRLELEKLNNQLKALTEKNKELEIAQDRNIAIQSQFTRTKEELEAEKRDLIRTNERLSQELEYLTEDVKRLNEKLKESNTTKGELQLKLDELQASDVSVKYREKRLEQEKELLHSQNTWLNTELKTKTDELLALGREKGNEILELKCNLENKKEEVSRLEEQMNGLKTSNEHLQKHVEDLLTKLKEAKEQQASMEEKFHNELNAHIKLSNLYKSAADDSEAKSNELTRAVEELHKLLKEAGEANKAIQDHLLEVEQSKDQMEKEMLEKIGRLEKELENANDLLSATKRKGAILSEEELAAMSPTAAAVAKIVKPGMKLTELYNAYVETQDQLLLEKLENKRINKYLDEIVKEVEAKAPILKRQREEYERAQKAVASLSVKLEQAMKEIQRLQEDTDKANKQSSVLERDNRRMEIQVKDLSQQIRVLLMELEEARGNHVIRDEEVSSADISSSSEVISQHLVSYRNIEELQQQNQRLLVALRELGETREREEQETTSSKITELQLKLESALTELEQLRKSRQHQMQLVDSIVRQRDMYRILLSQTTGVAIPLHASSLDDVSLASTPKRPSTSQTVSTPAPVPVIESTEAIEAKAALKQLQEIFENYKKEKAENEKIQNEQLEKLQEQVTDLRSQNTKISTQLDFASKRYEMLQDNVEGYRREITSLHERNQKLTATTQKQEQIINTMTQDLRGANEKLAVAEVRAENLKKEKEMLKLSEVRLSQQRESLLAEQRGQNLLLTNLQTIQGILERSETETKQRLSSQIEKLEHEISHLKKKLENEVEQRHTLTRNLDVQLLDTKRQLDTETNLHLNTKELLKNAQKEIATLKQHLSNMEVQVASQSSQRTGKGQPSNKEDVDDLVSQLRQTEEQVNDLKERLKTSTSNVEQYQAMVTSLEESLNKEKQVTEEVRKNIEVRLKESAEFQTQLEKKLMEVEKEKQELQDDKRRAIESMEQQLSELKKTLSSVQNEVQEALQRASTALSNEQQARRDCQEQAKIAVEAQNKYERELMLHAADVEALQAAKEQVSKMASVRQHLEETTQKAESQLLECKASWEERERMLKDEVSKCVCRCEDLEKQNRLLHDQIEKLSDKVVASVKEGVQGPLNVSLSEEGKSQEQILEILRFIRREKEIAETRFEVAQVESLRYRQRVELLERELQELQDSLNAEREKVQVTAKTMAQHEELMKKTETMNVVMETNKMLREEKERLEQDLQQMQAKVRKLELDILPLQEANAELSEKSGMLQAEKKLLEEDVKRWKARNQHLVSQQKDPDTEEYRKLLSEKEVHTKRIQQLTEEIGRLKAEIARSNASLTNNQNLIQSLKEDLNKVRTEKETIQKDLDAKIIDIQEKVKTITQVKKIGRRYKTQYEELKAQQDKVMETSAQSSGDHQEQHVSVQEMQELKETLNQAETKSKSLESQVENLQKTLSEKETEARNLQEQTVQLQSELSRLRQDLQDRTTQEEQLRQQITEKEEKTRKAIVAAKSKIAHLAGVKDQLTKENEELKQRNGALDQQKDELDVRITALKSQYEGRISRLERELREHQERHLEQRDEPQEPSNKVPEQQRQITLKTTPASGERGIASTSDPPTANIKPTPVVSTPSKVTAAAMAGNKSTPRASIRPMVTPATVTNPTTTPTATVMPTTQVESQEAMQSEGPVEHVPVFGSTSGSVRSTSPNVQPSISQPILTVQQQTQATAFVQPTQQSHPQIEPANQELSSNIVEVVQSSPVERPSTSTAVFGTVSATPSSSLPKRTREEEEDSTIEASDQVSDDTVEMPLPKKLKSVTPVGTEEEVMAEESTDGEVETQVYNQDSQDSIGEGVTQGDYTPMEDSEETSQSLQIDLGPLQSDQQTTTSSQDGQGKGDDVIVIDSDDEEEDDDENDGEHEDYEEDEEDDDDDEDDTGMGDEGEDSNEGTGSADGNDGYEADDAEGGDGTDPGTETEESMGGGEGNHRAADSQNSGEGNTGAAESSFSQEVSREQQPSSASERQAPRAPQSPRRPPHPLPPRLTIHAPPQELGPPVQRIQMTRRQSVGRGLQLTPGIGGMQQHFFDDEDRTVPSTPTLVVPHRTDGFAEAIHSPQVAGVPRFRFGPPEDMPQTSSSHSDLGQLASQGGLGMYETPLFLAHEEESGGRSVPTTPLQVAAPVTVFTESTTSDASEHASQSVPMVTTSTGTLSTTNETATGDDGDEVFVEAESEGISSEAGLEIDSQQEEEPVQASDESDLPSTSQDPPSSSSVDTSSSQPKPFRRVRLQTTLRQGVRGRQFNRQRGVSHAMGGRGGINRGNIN"}, "source": "paper PMC10290086", "key": {"[1]": {"molecular_target": "T1, HA-tagged RAE1 (UniProt P78406)", "T1 sequence": "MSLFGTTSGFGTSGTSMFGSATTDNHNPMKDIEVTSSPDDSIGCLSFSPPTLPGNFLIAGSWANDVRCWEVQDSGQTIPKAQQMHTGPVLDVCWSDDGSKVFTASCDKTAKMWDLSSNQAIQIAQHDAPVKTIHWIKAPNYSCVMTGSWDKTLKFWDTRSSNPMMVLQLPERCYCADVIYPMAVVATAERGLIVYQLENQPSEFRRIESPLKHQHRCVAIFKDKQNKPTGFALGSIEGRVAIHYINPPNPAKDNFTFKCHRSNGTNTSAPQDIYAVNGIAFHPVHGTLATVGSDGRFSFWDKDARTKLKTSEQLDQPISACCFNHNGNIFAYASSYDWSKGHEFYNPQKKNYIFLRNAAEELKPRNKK", "experiment": "co-IP; HA-tagged RAE1 expressed in progenitor-state keratinocytes; NUP98 detected in the precipitate (Supplementary Fig. 3a)"}, "[2]": {"molecular_target": "T2, RAE1 (human (endogenous in primary keratinocytes)) (UniProt P78406)", "T2 sequence": "T1 sequence", "experiment": "co-IP; nuclear extract of undifferentiated keratinocytes (50 mM Tris pH 8, 0.05% NP-40, 10% glycerol, 2 mM MgCl2, 250 mM NaCl); NUP98 or RAE1 antibody or mouse IgG control on protein G beads, overnight at 4 °C; also with or without RNase A (50 ug/mL, 20 min, 30 °C); blots for NUP98, RAE1, TPR and with mAb414"}, "[3]": {"molecular_target": "NUP98 (human (endogenous in primary keratinocytes)) (UniProt P52948)", "experiment": "co-IP; crosslinking co-immunoprecipitation: undifferentiated keratinocytes crosslinked with 1% formaldehyde for 10 min, nuclei lysed in PBS with 1% NP-40, 0.5% sodium deoxycholate, 0.1% SDS, 10 mM EDTA, sonicated; NUP98 or RAE1 antibody on protein G beads; blot for HDAC1"}, "[4]": {"molecular_target": "T2, RAE1 (human (endogenous in primary keratinocytes))", "experiment": "co-IP; crosslinking co-immunoprecipitation: undifferentiated keratinocytes crosslinked with 1% formaldehyde for 10 min, nuclei lysed in PBS with 1% NP-40, 0.5% sodium deoxycholate, 0.1% SDS, 10 mM EDTA, sonicated; NUP98 or RAE1 antibody on protein G beads; blot for HDAC1"}}, "note": "Results are given in words; binding and its absence hold for the method and conditions named. In cells and extracts the contact can be indirect. Some entries that bind do so weakly or less than the wild type. For some assays here: Where a sequence is shown, tags or fusion partners need not be part of it.", "data": [{"substance": "NUP98 (from UniProt P52948 1-880)", "values": [{"measurement": "binding", "setting": "[1]", "result": "binds"}, {"measurement": "binding", "setting": "[2]", "result": "binds"}]}, {"substance": "HDAC1 (from UniProt Q13547 1-482)", "values": [{"measurement": "binding", "setting": "[3]", "result": "binds"}, {"measurement": "binding", "setting": "[4]", "result": "binds"}]}, {"substance": "TPR (from UniProt P12270 1-2363)", "values": [{"measurement": "binding", "setting": "[2]", "result": "no binding"}]}]}
